# Measurements reported in PubChem BioAssay AID1768 (National Center for Advancing Translational Sciences (NCATS), 2009).
# Hit rate of the full screen: of about 270,000 compounds, about 620 (0.23%) were called active. The shares of active, inactive and inconclusive entries below differ from those in the screen. Calls come from the whole dose curve; as a rule, active = well fitted inhibition curve with a large enough effect in the polarisation, with a control signal flat (not every such curve was filed as active); inconclusive = small, poorly fitted or top-dose-only effect, or effect the other way, or a change in a side signal; inactive = no such curve, though single readings can be large or run the other way; the % refers to the polarisation. A potency beside an inconclusive call is a rough fit, not a confirmed value. A note “side channel” means that the fit belongs to a control or component signal, not to the main read-out.
# Molecular target: Menin (Homo sapiens) (UniProt O00255)
# Assay: qHTS Assay for Inhibitors Targeting the Menin-MLL Interaction in MLL Related Leukemias: Competition With Texas Red Labeled MLL-derived Mutant Peptide
# Conditions: fluorescence polarization; series mostly up to 61.6 µM
# Potency is the fitted concentration of half-maximal effect; tags give direction and shape of the fitted curve or compound fluorescence and quenching.
# Chain of UniProt O00255 (O00255 whole entry, looked up): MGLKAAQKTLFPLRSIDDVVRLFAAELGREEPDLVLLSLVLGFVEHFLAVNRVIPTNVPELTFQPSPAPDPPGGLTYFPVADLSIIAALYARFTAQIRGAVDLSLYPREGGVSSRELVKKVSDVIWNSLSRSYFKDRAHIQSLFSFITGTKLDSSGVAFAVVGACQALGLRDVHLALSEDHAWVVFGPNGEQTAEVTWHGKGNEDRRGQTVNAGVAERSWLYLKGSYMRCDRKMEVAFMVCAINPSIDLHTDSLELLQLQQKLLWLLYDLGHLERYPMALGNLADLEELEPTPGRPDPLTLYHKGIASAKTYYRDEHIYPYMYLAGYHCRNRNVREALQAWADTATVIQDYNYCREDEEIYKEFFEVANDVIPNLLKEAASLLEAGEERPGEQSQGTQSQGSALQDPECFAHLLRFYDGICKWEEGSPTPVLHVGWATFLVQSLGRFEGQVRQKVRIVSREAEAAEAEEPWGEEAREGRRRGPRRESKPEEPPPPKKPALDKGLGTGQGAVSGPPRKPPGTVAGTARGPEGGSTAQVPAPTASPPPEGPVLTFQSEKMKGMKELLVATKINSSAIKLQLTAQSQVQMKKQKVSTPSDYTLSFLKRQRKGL
row,SMILES,Potency
1,COc1cc2ccccc2cc1C(=O)Nc1ccc(C)cc1,"inconclusive: 22.4 µM [quencher, side channel, single point]"
2,O=C1C(Nc2cccc(O)c2)=C(N2CCCCC2)C(=O)c2ccccc21,"inconclusive: 10 µM [quencher, side channel, partial curve]"
3,COC(=O)c1[nH]c2cc(OC)ccc2c1NC(=O)c1ccc2c(c1)OCO2,"inconclusive: 15.8 µM [quencher, side channel, partial curve]"
4,COc1ccc(-c2[nH]ncc2Oc2ccccc2OC)c(O)c1,"inconclusive: 31.6 µM [quencher, side channel, single point]"
5,COc1ccccc1NC(=O)C(=O)N/N=C(\C)CC(=O)Nc1ccc(OCc2ccccc2)cc1,"inconclusive: 12.6 µM [inhibitor, partial curve]"
6,CCOc1cccc(NC(=O)CSc2sc3c(O)cc(=O)[nH]c3c2C#N)c1,"inconclusive: 22.4 µM [quencher, side channel, single point]"
7,COc1ccc(CCC(C)N2CCOCC2)cc1 (stereo not given),"inconclusive: 39.8 µM [inhibitor, single point]"
8,COc1cccc(/C=N/Nc2nccnc2Cl)c1O,inactive
9,Cc1ccccc1NC(=O)CCC(=O)OCC(=O)c1ccc(-c2ccccc2)cc1,active: 35.5 µM
10,O=C(Cn1nc(-c2ccc3c(c2)OCCO3)ccc1=O)Nc1ccc(-n2cnnn2)cc1,"inconclusive: 3.55 µM [fluorescent, side channel, partial curve]"
11,CN(C)S(=O)(=O)N(CC(=O)Nc1ccc2ccccc2c1)c1ccccc1,"inconclusive: 22.4 µM [quencher, side channel, partial curve]"
12,COc1ccc(OC)c(NC(=O)CSc2ncccc2C(=O)O)c1,"inconclusive: 3.98 µM [inhibitor, single point]"
13,CC(C)C(c1nnnn1Cc1ccc(F)cc1)N1CCN(c2ccc(O)cc2)CC1 (stereo not given),inactive
14,COCCCn1c(SCC(=O)NC2CCCCC2)nc2ccccc2c1=O,"inconclusive: 35.5 µM [quencher, side channel, single point]"
15,O=c1[nH]c2cc([N+](=O)[O-])c(NCCO)c([N+](=O)[O-])c2[nH]1,"inconclusive: 39.8 µM [quencher, side channel, single point]"
16,Cc1ccc(CNC(=O)c2ccc(N3CCC4(CC3)CC(c3ccccc3)=NO4)c(N)c2)cc1,inactive
17,COCCn1c(CN2CCN(C(c3ccccc3)c3ccccc3)CC2)nc2c1c(=O)n(C)c(=O)n2C,"inconclusive: 39.8 µM [fluorescent, side channel, single point]"
18,C=CCc1cccc(/C=N/NC(=O)CNc2ccccc2OC)c1O,"inconclusive: 35.5 µM [quencher, side channel, single point]"
19,C/C(CCc1ccc2c(c1)OCO2)=N\N=C1\NC(=O)CC(C(=O)Nc2ccc(Cl)cc2)S1 (stereo not given),"inconclusive: 35.5 µM [quencher, side channel, single point]"
20,CC1(C)CC(=O)C2=C(C1)N(c1ccc(F)cc1)C(=O)C2(O)C(F)(F)F (stereo not given),"inconclusive: 3.55 µM [inhibitor, partial curve]"
21,Cc1ccc(NC(=O)CCn2c(=O)[nH]c3ccsc3c2=O)cc1C,"inconclusive: 22.4 µM [quencher, side channel, single point]"
22,Cc1nn(-c2ccccc2)c2c1C(=O)N(c1ccccc1)C(=O)C(C)(C)C2,"inconclusive: 39.8 µM [inhibitor, partial curve, poor fit]"
23,CCCCNCC(=O)Nc1sc(C)c(C)c1C(=O)OCC,"inconclusive: 10 µM [inhibitor, partial curve]"
24,Cc1cccc(C(=O)N2CCC(N3CCC(C(=O)N4CCOCC4)CC3)CC2)c1,"inconclusive: 4.47 µM [inhibitor, full curve, poor fit]"
25,COc1cc(OC)cc(C(=O)NC(=S)Nc2cccnc2)c1,"inconclusive: 28.2 µM [fluorescent, partial curve]"
26,CCOC(=O)NC(NC(=S)Nc1ccccc1[N+](=O)[O-])C(Cl)(Cl)Cl (stereo not given),"inconclusive: 14.1 µM [quencher, side channel, partial curve]"
27,Clc1ccccc1/C=N/NC1=Nc2cccc3cccc1c23,"inconclusive: 14.1 µM [quencher, side channel, partial curve]"
28,CCn1c2ccccc2c2cc(CNCc3ccc(OC)cc3OC)ccc21,"inconclusive: 0.631 µM [fluorescent, side channel, full curve]"

row,SMILES,Potency
1,CCOC(=O)c1sc(NC(=O)c2cc(-c3ccc(C)cc3)nc3ccccc23)c(C#N)c1C,"inconclusive: 10 µM [quencher, side channel, partial curve]"
2,COc1ccc(S(N)(=O)=O)cc1C(=O)OCCCOc1ccc(F)cc1,"inconclusive: 28.2 µM [inhibitor, partial curve]"
3,NC(=O)CSCc1nc2ccccc2s1,"inconclusive: 25.1 µM [quencher, side channel, single point]"
4,Cc1ccc(N/C=C(\C2OC(=O)c3ccccc32)[N+](=O)[O-])c(C)c1 (stereo not given),inactive
5,C=CCc1cc2c(oc(=O)c3ccccc32)c(C)c1O,"inconclusive: 3.16 µM [quencher, side channel, full curve]"
6,N#Cc1c(Nc2cccc(F)c2)sc2c(O)cc(=O)[nH]c12,"inconclusive: 11.2 µM [quencher, side channel, partial curve]"
7,CCOC(=O)C1CCN(c2nc3ccccc3nc2C(C#N)C(=O)OC(C)C)CC1 (stereo not given),"inconclusive: 5.62 µM [fluorescent, side channel, full curve, poor fit]"
8,C/C(=N\Nc1cccc2cccnc12)c1ccc[nH]1,"inconclusive: 17.8 µM [quencher, side channel, partial curve]"
9,CCC(C(=O)O)C1CCC(C)C(C(C)C(O)C(C)C(=O)C(CC)C2OC3(C=CC(O)[C@@]4(CC[C@](C)(C5CC[C@@](O)(CC)C(C)O5)O4)O3)C(C)CC2C)O1 (stereo not given in full),inactive
10,Cc1ccc(Sc2ccc(C(=O)NC(C)C)cc2[N+](=O)[O-])cc1,"inconclusive: 28.2 µM [quencher, side channel, partial curve]"
11,O=C(Cc1ccccc1)O/N=C1\CCCc2ccccc21,"inconclusive: 17.8 µM [fluorescent, side channel, single point]"
12,Cc1ccc(NC(=O)N2CCCC2C(=O)Nc2ccc(-n3cnnn3)c(C)c2)cc1 (stereo not given),"inconclusive: 0.631 µM [inhibitor, full curve, poor fit]"
13,CC(C(=O)Nc1cccc(Br)c1)c1ccc([N+](=O)[O-])cc1 (stereo not given),"inconclusive: 31.6 µM [quencher, side channel, single point]"
14,O=C(CN1CCSc2ccccc21)NCCCc1ccccc1,"inconclusive: 8.91 µM [inhibitor, single point]"
15,O=C(N/N=C/c1ccccc1)c1ccc(-c2ccccc2)cc1,"inconclusive: 39.8 µM [fluorescent, side channel, single point]"
16,Cc1ccc(N(CC(=O)Nc2ccc(F)c(Cl)c2)S(=O)(=O)c2c(C)noc2C)cc1,"inconclusive: 6.31 µM [quencher, side channel, full curve]"
17,COC(=O)c1ccc2nc(NC(=O)CSCC(=O)OCC(=O)c3ccccc3)sc2c1,"inconclusive: 11.2 µM [quencher, side channel, partial curve, poor fit]"
18,C#CCOCCOCCOCCNc1nc(N2CCN(C(=O)[C@H](CCCCN)n3cc([C@@H](N)C(C)CC)nn3)CC2)nc(N2CCN(C(=O)[C@H](Cc3cc4ccccc4[nH]3)n3cc([C@@H](N)CC(C)C)nn3)CC2)n1 (stereo not given in full),"inconclusive: 1.78 µM [fluorescent, side channel, full curve, poor fit]"
19,CN(C)S(=O)(=O)c1cccc(C(=O)OCC(=O)Nc2sccc2C(N)=O)c1,"inconclusive: 14.1 µM [quencher, side channel, partial curve]"
20,COc1ccc(-c2cc(C(=O)Nc3c(C)nn(Cc4ccccc4)c3C)no2)cc1,"inconclusive: 14.1 µM [fluorescent, side channel, partial curve]"
21,Oc1ccccc1-c1cc(-c2ccc3c(c2)OCCO3)n[nH]1,"inconclusive: 25.1 µM [quencher, partial curve]"
22,O=[N+]([O-])c1ccc(/C=N/Nc2ncc(-c3ccccc3)cn2)cc1,"inconclusive: 39.8 µM [quencher, side channel, single point]"
23,COc1ccc(-n2c(SCC(=O)N3CCCCC3)nc3ccccc3c2=O)cc1,"inconclusive: 14.1 µM [fluorescent, side channel, partial curve]"
24,O=C(NCc1ccccc1Cl)c1cc([N+](=O)[O-])ccc1Cl,"inconclusive: 39.8 µM [fluorescent, side channel, single point]"
25,CC1(C(=O)OCC(=O)Nc2ccc3ccccc3c2)CC1(Cl)Cl (stereo not given),"inconclusive: 14.1 µM [quencher, side channel, partial curve]"
26,O=C(NCc1cn(-c2ccccc2)nc1-c1ccccc1)c1cccc([N+](=O)[O-])c1,"inconclusive: 17.8 µM [quencher, side channel, partial curve]"
27,Cc1cc(C)n(-c2nc3ccccc3c(=O)n2OCC(=O)Nc2c(C)cccc2C)n1,"inconclusive: 0.199 µM [inhibitor, full curve, poor fit]"
